Source: the supplement of paper PMC6089552
The whole screen tested about 3,200 compounds, of which about 300 (9.4%) showed activity. The entries are a selection whose mix differs from that of the whole data set.

Tested on: A673/TR/shEF
Assay: cell viability (LOESS-normalised, relative to median of negative controls) (log2 ratio); higher = more viable cells (less compound effect), active = hit call of the paper (over 3 MAD below the median)
Settings: treatment time: 72 h
Procedure, shortened: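 For three days, A673/TR/shEF Ewing sarcoma cells in 384-well plates (1,500 per well) were treated with library compounds at two or more concentrations or with DMSO controls, after doxycycline had been added or withheld 24 h beforehand to induce EWS-FLI1 shRNA knockdown. Viability was read by CellTiter-Glo luminescence on an Envision reader. The data were LOESS-corrected per plate, divided by the median of negative controls and log2-transformed.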

[1] = 0.25 µM, library screen: screen1, EWS-FLI1 expression: high (no doxycycline)
[2] = 0.25 µM, library screen: screen1, EWS-FLI1 expression: low (doxycycline-induced shRNA knockdown)
[3] = 2.5 µM, library screen: screen1, EWS-FLI1 expression: high (no doxycycline)
[4] = 2.5 µM, library screen: screen1, EWS-FLI1 expression: low (doxycycline-induced shRNA knockdown)
[5] = 0.25 µM, library screen: screen2, EWS-FLI1 expression: high (no doxycycline)
[6] = 0.25 µM, library screen: screen2, EWS-FLI1 expression: low (doxycycline-induced shRNA knockdown)
[7] = 2.5 µM, library screen: screen2, EWS-FLI1 expression: high (no doxycycline)
[8] = 2.5 µM, library screen: screen2, EWS-FLI1 expression: low (doxycycline-induced shRNA knockdown)
[9] = 0.308 µM, library screen: screen3, EWS-FLI1 expression: high (no doxycycline)
[10] = 0.308 µM, library screen: screen3, EWS-FLI1 expression: low (doxycycline-induced shRNA knockdown)
[11] = 0.926 µM, library screen: screen3, EWS-FLI1 expression: high (no doxycycline)
[12] = 0.926 µM, library screen: screen3, EWS-FLI1 expression: low (doxycycline-induced shRNA knockdown)
[13] = 2.8 µM, library screen: screen3, EWS-FLI1 expression: high (no doxycycline)
[14] = 2.8 µM, library screen: screen3, EWS-FLI1 expression: low (doxycycline-induced shRNA knockdown)
[15] = 8.3 µM, library screen: screen3, EWS-FLI1 expression: high (no doxycycline)
[16] = 8.3 µM, library screen: screen3, EWS-FLI1 expression: low (doxycycline-induced shRNA knockdown)
[17] = 25 µM, library screen: screen3, EWS-FLI1 expression: high (no doxycycline)
[18] = 25 µM, library screen: screen3, EWS-FLI1 expression: low (doxycycline-induced shRNA knockdown)
[19] = 0.103 µM, library screen: screen3, EWS-FLI1 expression: high (no doxycycline)
[20] = 0.103 µM, library screen: screen3, EWS-FLI1 expression: low (doxycycline-induced shRNA knockdown)

Measured: cell viability (log2)

Cc1onc(-c2c(Cl)cccc2Cl)c1C(=O)N[C@@H]1C(=O)N2[C@@H]1SC(C)(C)[C@@H]2C(=O)O
inactive: [1] 0.162 | [2] 0.13 | [3] 0.181 | [4] 0.179

CCCCCC[C@@H]([C@@H](C)O)n1cnc2c(N)ncnc21
inactive: [5] 0.208 | [6] 0.0178 | [7] 0.104 | [8] -0.0266

CC[N+](C)(C)Cc1ccccc1Br
inactive: [1] 0.0645 | [2] 0.0676 | [5] 0.15 | [6] 0.144 | [3] 0.126 | [4] -0.0279 | [7] 0.176 | [8] 0.0674

C[N+](C)(C)CCCCCC[N+](C)(C)C
inactive: [1] 0.107 | [2] 0.101 | [5] 0.128 | [6] 0.0242 | [3] 0.0541 | [4] 0.0148 | [7] 0.13 | [8] 0.0584

C[C@H](N)[C@H](O)c1cccc(O)c1
inactive: [1] 0.231 | [2] 0.24 | [3] 0.198 | [4] 0.252

CCN(CC)CCOC(=O)C(Cc1cccc2ccccc12)CC1CCCO1 (stereo not drawn)
inactive: [1] 0.0771 | [2] 0.121 | [3] 0.124 | [4] 0.131

Cc1ccc2nc(NC3=NC(CC(=O)O)C(=O)N3)nc(C)c2c1 (stereo not drawn)
inactive: [1] 0.016 | [2] -0.0194 | [3] 0.0679 | [4] -0.193

Cc1nc2sccn2c(=O)c1CCN1CCC(=C(c2ccccc2)c2ccc(F)cc2)CC1
inactive: [5] 0.158 | [6] 0.0717 | [7] 0.0856 | [8] 0.0996

COC(=O)C1=C(C)N=c2s/c(=C/c3ccc(OC)cc3OC)c(=O)n2C1c1cccs1 (stereo not drawn)
inactive: [1] 0.0522 | [2] 0.13 | [3] 0.0666 | [4] 0.065

NC(=NCCCCCCN=C(N)/N=C(\N)Nc1ccc(Cl)cc1)/N=C(\N)Nc1ccc(Cl)cc1
inactive: [1] 0.0882 | [2] 0.139 | [3] 0.128 | [4] 0.121

COc1c(-c2ccccc2)oc2c(ccc3occc32)c1=O
inactive: [1] 0.149 | [2] -0.022 | [3] 0.148 | [4] -0.0254

Cc1ccccc1OCC(O)CO (stereo not drawn)
inactive: [1] 0.0791 | [2] -0.0304 | [3] 0.14 | [4] -0.0183

NC(N)=NC(=O)c1nc(Cl)c(N2CCCCCC2)nc1N
inactive: [1] 0.112 | [2] 0.0462 | [5] 0.116 | [6] 0.137 | [3] 0.118 | [4] 0.0338 | [7] 0.142 | [8] 0.0733

O=C1CN(/N=C/c2ccc([N+](=O)[O-])o2)C(=O)N1
inactive: [1] 0.0668 | [2] -0.0411 | [3] 0.18 | [4] 0.0382

CS(=O)(=O)c1ccc(-c2cc(Br)sc2-c2ccc(F)cc2)cc1
inactive: [5] 0.22 | [6] 0.0867 | [7] 0.138 | [8] 0.138

COc1ccc(CN2CCN(Cc3ccc4ccccc4c3)CC2)cc1OC
inactive: [1] 0.139 | [2] 0.112 | [3] 0.0401 | [4] 0.187

CC1=C(CC(=O)O)c2cc(F)ccc2/C1=C\c1ccc(S(C)(=O)=O)cc1
inactive: [5] 0.0875 | [6] 0.0432 | [7] 0.105 | [8] 0.0598

CC(C)CC1NC(=O)C(Cc2ccccc2)NC(=O)C(CCN)NC(=O)C(NC(=O)C(CCN)NC(=O)C(CCO)NC(=O)C(CCN)NC=O)CCNC(=O)C(CCO)NC(=O)C(CCN)NC(=O)C(CCN)NC1=O.COc1cc(Cc2cnc(N)nc2N)cc(OC)c1OC (stereo not drawn)
inactive: [1] 0.0686 | [2] 0.0873 | [3] 0.182 | [4] 0.054

COc1c/c(=C2\C=c3ccccc3=N2)[nH]/c1=C\c1[nH]c(C)cc1C
active: [9] -0.218 | [10] -0.107 | [11] -0.709 | [12] -0.236 | [13] -2.64 | [14] -1.14 | [15] -3.15 | [16] -1.55 | [17] -4.31 | [18] -2.5

CC(C)CN(C)c1nc(N)c(C(=O)N=C(N)N)nc1Cl
inactive: [5] 0.17 | [6] 0.0963 | [7] 0.0788 | [8] 0.132

NS(=O)(=O)c1cc2c(cc1Cl)NC(CSCc1ccccc1)=NS2(=O)=O
inactive: [1] 0.103 | [2] 0.0722 | [3] 0.0775 | [4] 0.161

Cc1cc(NS(=O)(=O)c2ccc(N)cc2)no1
inactive: [19] 0.0914 | [20] 0.0238 | [1] 0.0536 | [2] 0.121 | [9] 0.102 | [10] 0.0418 | [11] 0.141 | [12] 0.0634 | [3] 0.0944 | [4] 0.121 | [13] 0.126 | [14] 0.0903 | [15] 0.144 | [16] 0.0558 | [17] 0.147 | [18] 0.0962

CN[C@@H]1[C@@H](O)[C@@H](O[C@@H]2[C@@H](O)[C@H](O[C@H]3OC(CN)=CC[C@H]3N)[C@@H](N)C[C@H]2N)OC[C@]1(C)O
inactive: [1] 0.0635 | [2] 0.0858 | [3] 0.103 | [4] 0.101

O=C(c1ccc2c(c1)OCCO2)N1CCCCC1
inactive: [5] 0.241 | [6] -0.0218 | [7] 0.114 | [8] 0.185

C=C[C@@H](C1=CC(=O)C(OC)=C(OC)C1=O)c1ccccc1
active: [1] -0.165
inactive: [2] 0.026 | [3] -0.00361 | [4] 0.0945

COc1cc(CN2CCN(Cc3ccccc3Br)CC2)cc(OC)c1OC
inactive: [1] 0.141 | [2] 0.0128 | [3] 0.124 | [4] -0.0338

O=C1OC(=O)C2C3CCC(O3)C12 (stereo not drawn)
inactive: [1] 0.115 | [2] 0.0886 | [5] 0.138 | [6] 0.0834 | [3] 0.14 | [4] 0.011 | [7] 0.114 | [8] 0.0316

COc1cc(O)c2c(c1)C(=O)c1cc(C)cc(O)c1C2=O
inactive: [1] 0.0766 | [2] 0.0322 | [3] 0.16 | [4] 0.0382

CC1(C)O[C@@H]2C[C@H]3[C@@H]4CCC5=CC(=O)C=C[C@]5(C)[C@H]4[C@@H](O)C[C@]3(C)[C@]2(C(=O)CO)O1
inactive: [19] -0.0091 | [20] 0.0117 | [9] -0.0587 | [10] 0.0625 | [11] 0.111 | [12] 0.0874 | [13] 0.0491 | [14] -0.0473 | [15] 0.0357 | [16] 0.0906 | [17] 0.105 | [18] 0.147

c1ccc(-c2ccccn2)nc1
inactive: [5] 0.15 | [6] 0.103 | [7] 0.133 | [8] 0.103

COc1ccccc1N1CCN(CCN(C(=O)c2ccc(F)cc2)c2ccccn2)CC1
inactive: [5] 0.142 | [6] 0.0764 | [7] 0.0684 | [8] 0.0252

O=C(O)Cc1cc(I)c(Oc2cc(I)c(O)c(I)c2)c(I)c1
inactive: [1] 0.0518 | [2] 0.0863 | [3] 0.0776 | [4] -0.0191

CCN(CC)CCOc1ccc2c(c1)C(=O)c1cc(OCCN(CC)CC)ccc1-2
inactive: [1] 0.195 | [2] 0.139 | [3] 0.212 | [4] 0.101

Oc1ccc(Cn2cc[nH]c2=S)cc1
inactive: [5] 0.193 | [6] 0.126 | [7] 0.258 | [8] 0.0645

O=C(CCCCCCC(=O)Nc1ccccc1)NO
active: [15] -1.12 | [16] -0.391 | [17] -2.67 | [18] -1.56

Cc1cc(C)c(NC(=O)C[C@H](CC(=O)O)c2cccc3ccccc23)c(C(=O)N2CCC3(CCCC3)CC2)c1
inactive: [5] 0.0801 | [6] 0.123 | [7] 0.177 | [8] 0.14

COC(=O)CC1C(C)(C)C(OC(C)=O)[C@@H]2[C@@H](OC(C)=O)[C@]34O[C@@]2(O)[C@]1(C)C3CC[C@]1(C)C4=CC(=O)O[C@H]1c1ccoc1 (stereo partly drawn)
inactive: [1] 0.0398 | [2] 0.0526 | [3] 0.056 | [4] 0.0405

CCNC(=O)CCC/C=C\C[C@@H]1[C@@H](/C=C/[C@@H](O)CCc2ccccc2)[C@H](O)C[C@@H]1O
inactive: [19] -0.00225 | [20] -0.0145 | [9] 0.059 | [10] 0.0209 | [11] 0.0151 | [12] 0.0659 | [13] 0.0571 | [14] 0.0311 | [15] 0.0442 | [16] 0.0426 | [17] 0.0585 | [18] 0.0859

CN1C(=O)CCC1c1cccnc1 (stereo not drawn)
inactive: [5] 0.264 | [6] 0.181 | [7] 0.161 | [8] 0.0586

C[C@]12C[C@H](O)[C@H]3[C@@H](CCC4=CC(=O)CC[C@@]43C)[C@@H]1CC[C@@H]2C(=O)CO
inactive: [5] 0.159 | [6] 0.128 | [7] 0.172 | [8] 0.0224

Cc1ccc(NC(=O)c2cccc(N(C)C)c2)cc1NC(=O)c1ccc(O)cc1
active: [3] -0.147 | 25 µM, library screen: screen1, EWS-FLI1 expression: high (no doxycycline) -0.322
0.277: [1]
inactive: 0.025 µM, library screen: screen1, EWS-FLI1 expression: high (no doxycycline) 0.191 | 0.025 µM, library screen: screen1, EWS-FLI1 expression: low (doxycycline-induced shRNA knockdown) -0.0357 | [2] 0.139 | [4] 0.168 | 25 µM, library screen: screen1, EWS-FLI1 expression: low (doxycycline-induced shRNA knockdown) 0.196
